According to patent US9868789B2, “Synergistic combinations of OX40L antibodies for the treatment of GvHD” (Kymab Limited, priority 2015, dated 2018):

Biological target: T1, CHO-S expressed hOX40L (Homo sapiens, UniProt P23510)
T1 construct: expressed in transfected cells
T1 sequence (P23510 1-183): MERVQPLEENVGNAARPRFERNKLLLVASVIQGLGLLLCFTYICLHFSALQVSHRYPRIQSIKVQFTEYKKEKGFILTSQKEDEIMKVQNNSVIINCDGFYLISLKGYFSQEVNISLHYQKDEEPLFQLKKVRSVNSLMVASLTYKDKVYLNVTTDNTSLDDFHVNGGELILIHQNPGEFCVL
Assay: FACS binding to CHO-S expressed hOX40L
Details: binding to hOX40L expressed on CHO-S cells; YES
Method: CHO-S cells expressing hOX40L or untransfected CHO-S cells, diluted in FACS buffer (PBS+1% w/v BSA+0.1% w/v NaN3) were distributed to a 96 well V-bottom plate (Greiner) at a density of 1×10^5 cells per well. Cells were washed with 150 μL of PBS and centrifuged at 300×g for 3 min. Supernatant was aspirated and 150 μL of PBS added. This wash step was repeated.
25 μL of hybridoma supernatant or purified antibody from hybridoma supernatant diluted in FACS buffer was added to the washed cells and incubated for 10-15 minutes. Reference Antibody or mouse IgG1 control antibody (Sigma) were diluted in FACS buffer to 20 μg/mL and 25 μL added to cells. 25 μL of human OX40R Fc (in-house) diluted to 1000 ng/mL in FACS buffer were then added to wells. Cells were incubated at 4° C. for 30 minutes. […]
To fix cells 100 μL 2% v/v paraformaldehyde was added and cells incubated for 30 minutes at 4° C., cells were pelleted by centrifugation 300×g and the plates and resuspended in 50 μL of FACS buffer. PE and APC signal intensity (geomean) was measured by flow cytometry using a BD FACS Array instrument.
% of control binding was calculated using geomean fluorescence as described in equation 1 where total binding was defined as reference antibody at 10 μg/mL and non-specific binding as mouse IgG1 antibody at 10 μg/mL. % receptor binding was calculated using Equation 3. […]

FACS Binding: YES
B1: 19H01 (hybridoma): murine/human chimeric anti-hOX40L antibody from hybridoma; VH SEQ ID No:94, VL SEQ ID No:108 (antibody, listed as Homo Sapiens, V domains shown)
VH: [about 100 residues not spelt out]DFLWFGEFPFDYWGQGTLVTVSS
VL: DIQMTQSPSSLSASVGDRVTITCRASQGISNYLAWYQQKPGKIPKLLIYAASTLQSGVPSRFSGSGSGTDFTLTISSLQPEDVATYYCQKYNSAPRTFGQGTKVEIK
